{"source": "PubChem BioAssay AID1347417", "about": "(National Center for Advancing Translational Sciences (NCATS), 2020)", "note": "Hit rate of the full screen: of about 120,000 compounds, about 5,300 (4.4%) were called active. The inconclusive results got no clear call from the source; some entries with a clear call stand among them for comparison. Calls follow the shape of the dose curve; as a rule, active = well fitted inhibition curve with a large enough effect; inconclusive = small, poorly fitted or top-dose-only effect; inactive = no such curve, though single readings can be large or run the other way. Potencies beside an inconclusive call are fits to weak or partial responses and may not hold up. Potency is read from the fitted curve at half-maximal effect; tags tell the direction and shape of the fitted curve."}
{"test": "qHTS Primary assay for Inhibitors of Plasmodium falciparum Dd2 growth in vitro; also: nearly all actives have a fitted effect of over 65% in size;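 as to activity, negative = inhibition: plate controls were DMSO vehicle for no effect and reference drug for full effect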", "conditions": "P. falciparum Dd2 growth, SYBR Green, 72 h; activity, negative = inhibition: at 28.9 µM (top of the series) unless noted; series mostly up to 28.9 µM", "summary_of_the_method": "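Readout: SYBR Green fluorescence, 485 nm excitation, 535 nm emission, after ~16 h lysis at 37C. Before that, Dd2-infected red cells (2.5% hematocrit) grew 72 h with compound, 29 uM top final concentration.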"}
{"compound": "COCCn1ccc2c(C3=CCOCC3)nc(-c3cccc(C(N)=O)c3)cc21", "Potency": "inconclusive: 11.2 µM [inhibitor, single point]"}
{"compound": "CCN(C)C(=O)CCc1c(C)nn(-c2ccccc2)c1Oc1ccccc1F", "activity, negative = inhibition": "inactive: -4.29%"}
{"compound": "O=C(CSc1nc2ccsc2c(=O)n1-c1ccc(Br)cc1)NCc1ccccc1", "Potency": "inconclusive: 12.6 µM [inhibitor, single point]"}
{"compound": "CO[C@H]1[C@H](NC(=O)c2cc3ccccc3[nH]2)c2ccccc2C12CCNCC2", "activity, negative = inhibition": "inactive: -5.49%"}
{"compound": "COc1ccc(C(=O)NCC(=O)N2CCCCCNC(=O)CC2c2ccccc2)c(OC)n1", "note": "(stereo unspecified)", "Potency": "inconclusive: 8.91 µM [inhibitor, partial curve, poor fit]"}
{"compound": "CCc1cccc(NC(=O)Cn2c(Nc3cc(C)cc(C)c3)nc(C)cc2=O)c1", "activity, negative = inhibition": "inactive: -10.1%"}
{"compound": "Cc1ccc(-c2nc(CNC(=O)[C@@H]3CCCN3)[nH]c2-c2ccccn2)cc1", "Potency": "inconclusive: 7.94 µM [inhibitor, partial curve]"}
{"compound": "CC(C)(C)c1nnc([C@H]2CCN(Cc3ccco3)C2)o1", "Potency": "inconclusive: 39.8 µM [inhibitor, single point]"}
{"compound": "COCCO[C@H]1C(=O)N(C2CCN(C(=O)c3ccccn3)CC2)[C@H]1c1ccncc1", "activity, negative = inhibition": "inactive: 12.8%"}
{"compound": "Cc1ccccc1Cn1nnc2c(=O)[nH]c(C3CCCN(C(=O)c4ccc(C(C)(C)C)cc4)C3)nc21", "note": "(stereo unspecified)", "Potency": "active: 8.91 µM"}
{"compound": "CCOC(=O)C1CCCN(C(=O)c2ccccc2NC(=O)c2nsc3ccccc23)C1", "note": "(stereo unspecified)", "Potency": "inconclusive: 20 µM [inhibitor, single point]"}
{"compound": "CCOc1ccc(C2CC(=O)c3c([nH]c(C(=O)OCCOc4ccccc4)c3C)C2)cc1", "note": "(stereo unspecified)", "Potency": "inconclusive: 8.91 µM [inhibitor, partial curve]"}
{"compound": "CNC(=O)NC[C@H]1CCN(Cc2ccc(C#N)cc2)C[C@H]1N(C)C", "activity, negative = inhibition": "inactive: 29.5%"}
{"compound": "COc1ccc(CCNCc2ccc3c(c2)n(C)c(=O)n3C)cc1", "Potency": "inconclusive: 7.94 µM [inhibitor, partial curve, poor fit]"}
{"compound": "CC(C)NC(=O)N1CCCC1c1nnc2n1CCNC2", "note": "(stereo unspecified)", "activity, negative = inhibition": "inactive: 2.18%"}
{"compound": "CCCCCCNC(=O)Cc1csc2nc(C)c(-c3cc(C)n(-c4ccccc4F)n3)c(=O)n12", "Potency": "inconclusive: 1.12 µM [inhibitor, partial curve, poor fit]"}
{"compound": "COc1ccc(NC(=O)Cn2c(-c3ccc(F)cc3)nc(C)cc2=O)cc1OC", "Potency": "inconclusive: 6.31 µM [inhibitor, partial curve, poor fit]"}
{"compound": "O=C(CCS(=O)(=O)c1cc(Br)cc2c1N(C(=O)C1CC1)CC2)N1CCN(c2ccccc2)CC1", "Potency": "inconclusive: 7.94 µM [inhibitor, partial curve]"}
{"compound": "CC1CCC(NC(=O)CN2C(=O)NC3(CCS(=O)(=O)CC3)C2=O)CC1", "note": "(stereo unspecified)", "activity, negative = inhibition": "inactive: 37.9%"}
{"compound": "O=C(Nc1cc(F)cc(F)c1)C1CCN(C(=O)c2ncn3c2COC(c2ccc(F)cc2)C3)CC1", "note": "(stereo unspecified)", "Potency": "inconclusive: 3.98 µM [inhibitor, single point]"}
{"compound": "CCOc1cccc(CN2C[C@@H](CO)[C@H](C3CCN(C(C)=O)CC3)C2)c1", "activity, negative = inhibition": "inactive: -10.8%"}
{"compound": "O=C(CCc1ccccc1)N(Cc1cccnc1)c1nc2ccc(F)cc2s1", "Potency": "inconclusive: 17.8 µM [inhibitor, single point]"}
{"compound": "COc1ccc(C(=O)N2CCn3c(nn(-c4cccc(Cl)c4)c3=O)C2)cc1", "activity, negative = inhibition": "inactive: 2.68%"}
{"compound": "COc1cccc(-c2cn3c(n2)N(C(=O)Cn2ccnc2)CCC3)c1", "Potency": "inconclusive: 5.01 µM [inhibitor, partial curve, poor fit]"}
{"compound": "CN1Cc2ccc(NCc3ccccc3)nc2C(C)(C(=O)NCCCn2ccnc2)C1", "note": "(stereo unspecified)", "Potency": "inconclusive: 1.78 µM [inhibitor, full curve, poor fit]"}
{"compound": "N#Cc1c(-c2ccccc2)cc(-c2ccccc2)nc1SCC(O)CS(=O)(=O)Cc1ccccc1", "note": "(stereo unspecified)", "Potency": "inconclusive: 11.2 µM [inhibitor, single point]"}
{"compound": "CC(C)(C)c1nc(C(=O)N2CCCC2)n2ccccc12", "Potency": "inconclusive: 11.2 µM [inhibitor, single point]"}
{"compound": "CCn1cc(CN2CCCCCNC(=O)[C@@H]3CCC[C@@H]32)c(C)n1", "Potency": "inconclusive: 17.8 µM [inhibitor, single point]"}
{"compound": "CN(C)C[C@@H]1CN(S(C)(=O)=O)C[C@H]1NC(=O)c1ncccn1", "outcome": "inactive"}
{"compound": "Cc1noc(/C=C/c2ccccc2F)c1S(=O)(=O)N1CCC(C(=O)NCc2ccco2)CC1", "Potency": "inconclusive: 17.8 µM [inhibitor, single point]"}
{"compound": "COc1ccc(CCNC(=O)CCc2c(C)nc3cc(-c4ccc(Cl)cc4)nn3c2C)c(OC)c1", "Potency": "inconclusive: 11.2 µM [inhibitor, single point]"}
{"compound": "O=C(c1ccccc1Cl)N1CCC(n2c(=O)[nH]c3ccccc32)CC1", "activity, negative = inhibition": "inactive: -1.34%"}
{"compound": "Cc1ccc(C#N)c(NCc2cccnc2N2CCN(c3ccccn3)CC2)n1", "Potency": "inconclusive: 10 µM [inhibitor, single point]"}
{"compound": "COc1ccc2c(c1)CCN=C2C[C@H]1CN(C(=O)CC(C)(C)C)CC[C@H]1CC(=O)O", "activity, negative = inhibition": "inactive: -3.04% [at 44.1 µM]"}
{"compound": "CC(C)=CCn1c(-c2ccc(F)cc2)cn2cc(C(=O)N3CCCCC3)nc2c1=O", "Potency": "inconclusive: 10 µM [inhibitor, partial curve]"}
{"compound": "CC(C)N1C(=O)C(CC(=O)Nc2cccc(OC(F)(F)F)c2)=C2CCCCC21", "note": "(stereo unspecified)", "Potency": "inconclusive: 20 µM [inhibitor, single point]"}
{"compound": "O=C(Cc1cccc(Cl)c1)N1CCc2c(n(Cc3ccccc3)n(-c3ccccc3)c2=O)C1", "Potency": "inconclusive: 17.8 µM [inhibitor, single point]"}
{"compound": "COc1ccc2nc3n(c2c1)[C@@H](CNC1CCCCC1)COC3", "Potency": "inconclusive: 14.1 µM [inhibitor, partial curve, poor fit]"}
{"compound": "COC[C@@H]1CN(Cc2ccc(F)c(OC)c2)C[C@H]1C(=O)N(C)C", "activity, negative = inhibition": "inactive: -18.7%"}
{"compound": "C[C@H](C(=O)N1Cc2ccccc2CC2(CCN(Cc3ccncc3)C2)C1)c1ccccc1", "note": "(stereo partly specified)", "Potency": "active: 10 µM"}
{"compound": "COc1ccccc1NC(=O)N1CCc2cc(OC)c(OC)cc2C1CNC(=O)c1ccccc1", "note": "(stereo unspecified)", "Potency": "inconclusive: 1.58 µM [inhibitor, partial curve, poor fit]"}
{"compound": "CC(=O)N1CCCc2cc(S(=O)(=O)N3CCC(C(=O)N(C)C4CCCCC4)CC3)ccc21", "Potency": "inconclusive: 12.6 µM [inhibitor, partial curve]"}
{"compound": "Cc1ccc(-c2noc([C@@H]3CCCN3C(=O)CCCc3ccccc3)n2)cc1", "Potency": "active: 11.2 µM"}
{"compound": "COc1ccccc1-c1cnc(NC(=O)C2CCOCC2)c2c1CCO2", "activity, negative = inhibition": "inactive: 24.3% [at 44.1 µM]"}
{"compound": "COc1cc(OC)cc(OCc2nc3c(n2Cc2ccccc2)C(=O)N(Cc2ccccc2C#N)CCN3)c1", "Potency": "inconclusive: 12.6 µM [inhibitor, partial curve, poor fit]"}
{"compound": "CN(Cc1ccc(-c2ccccc2)cc1)C(=O)C1CC1", "Potency": "inconclusive: 0.501 µM [inhibitor, full curve, poor fit]"}
{"compound": "COCCNC(=O)C[C@@H]1C[C@@H](C(C)C)[C@H](CNS(C)(=O)=O)C=C1C", "Potency": "inconclusive: 6.31 µM [inhibitor, partial curve, poor fit]"}
{"compound": "Cc1cc(C)cc(N2C(=O)CSC23C(=O)N(CC(=O)NC2CCCCC2)c2ccccc23)c1", "note": "(stereo unspecified)", "Potency": "inconclusive: 11.2 µM [inhibitor, single point]"}
{"compound": "COC(=O)c1cc2n(n1)CCN(C(=O)C(C)Oc1ccccc1)C2", "note": "(stereo unspecified)", "activity, negative = inhibition": "inactive: -0.602%"}
{"compound": "CCN(CC)Cc1nc(C2(O)CCN(Cc3ccc(F)cc3)CC2)cs1", "outcome": "inactive [at 44.1 µM]"}
{"compound": "O=C(Cn1nc2c(cc1=O)CCCC2)NCCc1c[nH]c2ccc(F)cc12", "activity, negative = inhibition": "inactive: 1.12%"}
{"compound": "Cc1nn2c(c1-c1ccccc1N1CCCC1)N(C(=O)c1ccn(C)n1)CCC2", "outcome": "inactive [at 44.1 µM]"}
{"compound": "O=C(CN1CC2CC(C1)[C@H]1CCCC(=O)N1C2)N1CCN(c2ccccc2F)CC1", "note": "(stereo partly specified)", "activity, negative = inhibition": "inactive: -24.5%"}
{"compound": "CCc1cc(CN2CC[C@@H](c3ccc4c(c3)OCO4)[C@H](O)C2)[nH]n1", "Potency": "inconclusive: 17.8 µM [inhibitor, single point]"}
{"compound": "COc1cc(CNC(=O)c2cc(-c3ccc(F)cc3)cc3ncn(C)c23)ccn1", "Potency": "inconclusive: 28.2 µM [inhibitor, partial curve, poor fit]"}
{"compound": "CCCn1c(C)c(CC(=O)NCC2CCCOC2)c2c1CC(C)(C)CC2=O", "note": "(stereo unspecified)", "Potency": "inconclusive: 17.8 µM [inhibitor, single point]"}
{"compound": "CCC1c2nccn2CCCN1C(=O)Cc1ccc(OC)cc1", "note": "(stereo unspecified)", "Potency": "active: 7.08 µM"}
{"compound": "Cc1ccc(-c2cn3c(n2)sc2cc(C(=O)NC4CCCCCC4)ccc23)cc1", "activity, negative = inhibition": "inactive: 0.603%"}
{"compound": "COCCCNC(=O)C1CCN(Cc2cc3ccccc3n2Cc2cccc(Cl)c2)CC1", "Potency": "inconclusive: 10 µM [inhibitor, partial curve, poor fit]"}
{"compound": "CCCN(C)C(=O)c1cn2ccnc(-c3ccc(C)cc3)c2n1", "Potency": "inconclusive: 20 µM [inhibitor, single point]"}
{"compound": "Cn1cc(-c2cc(=O)c3ccnc(-c4cccc5[nH]ccc45)c3o2)cn1", "outcome": "inactive [at 44.1 µM]"}
{"compound": "CCOc1ccc(CC(=O)N2CCN(c3cc(-c4ccccc4)[nH]n3)CC2)cc1", "Potency": "inconclusive: 2.51 µM [inhibitor, partial curve]"}
{"compound": "O=C1NCCCCCCN(Cc2ccccc2)[C@H]2CCC[C@@H]12", "Potency": "inconclusive: 2.51 µM [inhibitor, full curve, poor fit]"}
{"compound": "Cc1cnc(NC(=O)c2ccc3c(c2)OCCN(CCC(F)(F)F)C3)s1", "outcome": "inactive [at 44.1 µM]"}
{"compound": "COc1ccccc1-c1ccnc(N[C@H]2CO[C@H]3[C@@H]2OC[C@@H]3NS(C)(=O)=O)n1", "Potency": "active: 14.1 µM"}
{"compound": "COc1cccc(CNC(=O)[C@@H]2C[C@@H](O)CN2C2CCN(C(=O)c3cccc(C)c3)CC2)c1", "Potency": "inconclusive: 17.8 µM [inhibitor, single point]"}
